Data taken from PubChem BioAssay AID1347428 (National Center for Advancing Translational Sciences (NCATS), 2020).
Among all 91,000 compounds or so, about 290 (0.32%) were called active. The inconclusive results got no clear call from the source; some entries with a clear call stand among them for comparison. Calls follow the shape of the dose curve; as a rule, active = well fitted inhibition curve with a large enough effect; inconclusive = small, poorly fitted or top-dose-only effect; inactive = no such curve, though single readings can be large or run the other way. A potency beside an inconclusive call is a rough fit, not a confirmed value.
% is scaled to controls: 0 for no effect and ±100 for the full control effect; potency is read from the fitted curve at half-maximal effect; tags tell the direction and shape of the fitted curve.
Also: nearly all actives have a fitted effect of over 25% in size.

Each compound was assayed against Single-stranded DNA cytosine deaminase (Homo sapiens) (UniProt Q9GZX7) (assay: Primary qHTS assay for inhibitors of Activation Induced Cytidine Deaminase (AID): AID signal). Details: AID deamination FRET fluorescence, UDG-coupled, 4 h; activity change, negative = inhibition: at 115 µM (top of the series).
Sequence of UniProt Q9GZX7 (Q9GZX7 whole entry, looked up): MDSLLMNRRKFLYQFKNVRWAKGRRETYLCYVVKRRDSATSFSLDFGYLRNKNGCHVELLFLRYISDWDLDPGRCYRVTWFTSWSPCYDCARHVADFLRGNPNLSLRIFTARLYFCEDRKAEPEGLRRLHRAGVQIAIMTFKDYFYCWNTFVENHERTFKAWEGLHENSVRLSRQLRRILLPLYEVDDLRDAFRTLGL
In the case of `Cc1ccc2c(=O)cc(C(=O)Nc3nc4ccc(Cl)cc4s3)oc2c1`, the Potency was inconclusive: 6.31 µM [inhibitor, full curve, poor fit].
With `CCCC(C(=O)NC(C)C)c1ccccc1` (stereo not drawn) the “activity change, negative = inhibition” value was inactive: -2.31%.
`Cc1ccc(-c2noc(CN(C(=O)COc3cc(C)cc(C)c3C)C(C)C)n2)cc1` was tested, and the Potency was active: 79.4 µM.
`Cc1cc(C)cc(NC(=O)CSc2nnc(-c3cc4occc4n3C)n2-c2ccccc2C)c1` was tested, and the Potency was inconclusive: 12.6 µM [inhibitor, full curve, poor fit].
With `O=C(C1CCC(Cn2c(=O)c3sccc3n(Cc3ccccc3F)c2=O)CC1)N1CCCCC1` (stereo not drawn) the Potency was active: 25.1 µM.
In the case of `O=C(Nc1ccc(Cl)cc1)N1CCN(c2ccc3nnc(-c4ccccc4)n3n2)CC1`, the Potency was inconclusive: 15.8 µM [inhibitor, full curve, poor fit].
With `O=C(Nc1ccccc1)C1CCN(S(=O)(=O)c2ccc3[nH]c4c(c3c2)CCCCC4)CC1` the Potency was inconclusive: 39.8 µM [inhibitor, partial curve, poor fit].
In the case of `CCc1c(C)sc2c1CCN(C(=O)Nc1ccc(F)c(Cl)c1)C2c1ccc(F)cc1` (stereo not drawn), the Potency was inconclusive: 44.7 µM [inhibitor, partial curve].
In the case of `COc1ccc(-c2noc(C3CC(=O)N(c4ccccc4)C3)n2)c(OC)c1` (stereo not drawn), the “activity change, negative = inhibition” value was inactive: -15.9%.
With `COc1ccc(-c2csc(N3N=C(C)CC3c3ccc(OC)c(OC)c3)n2)cc1OC` (stereo not drawn) the Potency was inconclusive: 39.8 µM [inhibitor, partial curve].
With `CCOc1ccccc1CNC(=O)c1cccn1-c1nnc(N2CCCCC2)s1` the Potency was inconclusive: 44.7 µM [inhibitor, partial curve].
`O=C(Nc1ccc(Cl)c(Cl)c1)C12CC3CC(CC(C3)C1)C2` was tested, and the “activity change, negative = inhibition” value was inactive: -1.1%.
In the case of `Cc1ccc(CNC(=O)CN(c2ccc(C)cc2)S(=O)(=O)c2c(C)nn(C)c2C)cc1`, the “activity change, negative = inhibition” value was inactive: 8.02%.
With `CN(C)c1ccc(Nc2nc3ccccc3nc2NS(=O)(=O)c2cccs2)cc1` the Potency was inconclusive: 89.1 µM [inhibitor, partial curve, poor fit].
`Cc1cc(NC(=O)CCNS(=O)(=O)c2ccc3c(c2)oc(=O)n3C)ccc1Br` was tested, and the Potency was inconclusive: 89.1 µM [inhibitor, single point].
`Cc1ccc(C(=O)/C=C/c2ccc(-c3cccc(Cl)c3Cl)o2)cc1` was tested, and the “activity change, negative = inhibition” value was inactive: -5.71%.
For `COc1cc2ccccc2cc1C(=O)N1CCN(c2nc3ccc(F)cc3s2)CC1`, the Potency was inconclusive: 35.5 µM [inhibitor, full curve].
`CC(=O)N1CCC(C(=O)Nc2ccc(Br)cc2)CC1` was tested, and the “activity change, negative = inhibition” value was inactive: -1.32%.
For `CCOc1ccc(S(=O)(=O)Nc2nc3ccccc3nc2Nc2ccc(OC)cc2)cc1`, the Potency was inconclusive: 89.1 µM [inhibitor, partial curve, poor fit].
In the case of `CC(C)c1ccc(OCC(=O)N(Cc2ccc(N(C)C)cc2)C2CCS(=O)(=O)C2)cc1` (stereo not drawn), the Potency was inconclusive: 79.4 µM [inhibitor, single point].
`C=Cc1ccc(CSc2nc(-c3ccc(C)cc3)nc3c2Cc2c(CO)cnc(C)c2O3)cc1` was tested, and the Potency was active: 31.6 µM.
`CC(=O)n1nc(NCc2c(F)cccc2Cl)nc1NCc1c(F)cccc1Cl` was tested, and the “activity change, negative = inhibition” value was inactive: 5.49%.
`Cc1ccc(Cl)cc1-n1ncc2c(Nc3cccc(C)c3C)ncnc21` was tested, and the Potency was inconclusive: 79.4 µM [inhibitor, single point].
`Cc1ccc(C2c3[nH]c4ccccc4c3CCN2C(=O)CCC2CCCC2)cc1` (stereo not drawn) was tested, and the Potency was inconclusive: 44.7 µM [inhibitor, partial curve, poor fit].
`CCC(CC)C(=O)Nc1nc2c(s1)CC(C)CC2` (stereo not drawn) was tested, and the Potency was inconclusive: 39.8 µM [inhibitor, single point].
In the case of `COc1ccccc1CNC(=O)c1nc(-c2ccccc2)oc1C`, the “activity change, negative = inhibition” value was inactive: -7.3%.
In the case of `COc1ccccc1N1CCN(CCCCNS(=O)(=O)c2cccc3c(N(C)C)cccc23)CC1`, the Potency was inconclusive: 50.1 µM [inhibitor, partial curve, poor fit].
For `COc1ccc(S(=O)(=O)NCCc2nnc3ccc(SCc4ccccc4Cl)nn23)cc1`, the Potency was inconclusive: 56.2 µM [inhibitor, partial curve, poor fit].
In the case of `Fc1ccc(-c2noc3ncnc(NCC4CCN(Cc5ccc(Cl)cc5)CC4)c23)cc1`, the Potency was inconclusive: 28.2 µM [inhibitor, full curve, poor fit].
In the case of `Cc1ccc(CN(Cc2ccco2)C(=O)COc2ccc(Cl)cc2)o1`, the Potency was inconclusive: 50.1 µM [inhibitor, partial curve, poor fit].
In the case of `N#C/C(=C/C1=Cc2cc(Cl)ccc2OC1)c1nc2ccccc2[nH]1`, the “activity change, negative = inhibition” value was inactive: 27.1%.
In the case of `COc1ccc(CCNC(=O)c2cnc3sc(N4CCCC4)nn3c2=O)cc1OC`, the Potency was inconclusive: 89.1 µM [inhibitor, single point].
For `COc1ccc(Br)cc1CNC(=O)c1ccc2c(c1)N(Cc1ccc(C)cc1)CCS2`, the Potency was inconclusive: 89.1 µM [inhibitor, partial curve, poor fit].
In the case of `COC(=O)C1CCN(S(=O)(=O)c2cc3c4c(c2)CC(=O)N4CCC3)CC1`, the “activity change, negative = inhibition” value was inactive: 3.28%.
For `Cc1ccc(-n2c(SCC(N)=O)nc3c(oc4ccccc43)c2=O)cc1C`, the Potency was inconclusive: 56.2 µM [inhibitor, partial curve, poor fit].
`O=C(CSc1nc2c([nH]c3ccccc32)c(=O)n1-c1ccc(Cl)cc1)NCC1CCCO1` (stereo not drawn) was tested, and the “activity change, negative = inhibition” value was inactive: -4.76%.
For `COc1ccc(C2C(C#N)=C(N)OC(C(C)(C)C)=C2C#N)cc1` (stereo not drawn), the “activity change, negative = inhibition” value was inactive: -7.93%.
With `O=[N+]([O-])c1ccc(C=Nc2cccc3ccccc23)cc1` the “activity change, negative = inhibition” value was inactive: 2.82%.
With `CCc1cccc(Nc2ncnc3onc(-c4ccc(F)cc4)c23)c1` the Potency was inconclusive: 89.1 µM [inhibitor, partial curve, poor fit].
With `O=C(NCc1ccccc1)c1cnc(N2CCCCC2)c2ccccc12` the Potency was inconclusive: 31.6 µM [inhibitor, partial curve].
In the case of `CC(NC(=O)c1ccc(C2SCCS2)cc1)c1cc2ccccc2o1` (stereo not drawn), the “activity change, negative = inhibition” value was inactive: -3.22%.
With `COc1ccc(Cl)cc1NC(=O)CSC1=Nc2ccccc2C2=NC(CC(=O)NCc3cccs3)C(=O)N12` (stereo not drawn) the Potency was inconclusive: 44.7 µM [inhibitor, partial curve, poor fit].
In the case of `O=C(NCCc1ccc(F)cc1)N1CCc2sccc2C1`, the “activity change, negative = inhibition” value was inactive: 1.8%.
